Measurements: the supplement of paper PMC12632987
In all, about 4,500 sequences were measured (“median log2 fold change of GCK-ALFA target abundance (FLAG IP / Myc IP barcode read proportion)”: median about 0.078, lowest 2% from about -0.6 on). The list shows a part of the results.

B1: GBRAP_11_2709 (protein)
chain: KKEKIKELAKEAEKLAKEIKKLIKEGPKEEELKKLAKKVKELAEKAKELGVDQAVVDTLNIAAEELKKAIENPETVEEHLKNAAAAVAVAAGLLLLEAEE
B2: GBRAP_128_3200 (protein)
chain: VSPEAIAALRALADEVIATRTDEAIRAFAEAIAAALKAGKIDLDALEAIVAYLGKGLSSDDIARAMDALREALADVGPEYLATATGTLGEEIMEKEEEEE
B3: GBRAP_39_5652 (protein)
chain: EEEEEAELLFDYYEALAEGYMVEKNISEEELIERGRKLLEKIAKEHPEIAELVKELLKAMEEGDEETKLAAAGIALEAERGTPIEEIAEHIKKFLAYVKK
B4: GBRAP_139_3713 (protein)
chain: SKLEELVKEAKEIVKKYRDDIEKLAKKLAELISKADDEARLAIAEAAAKEMKDWSWEKWEKFIELLEKELKKLGLSEDDVLAIKGVMEAVYAKYAIEKEK
B5: GBRAP_137_3630 (protein)
chain: ATVEIEVEEYEDVVEITVTLKDAAKAEAVKELVLDVAHEHGALAVSVEVEEDGTLVVTVWVPREKAEAFLEALVRRLQTELGLRVRVRNLDTGEEEEFEP
B6: GBRAP_35_5604 (protein)
chain: SITDLLVETTLDYAEALTEGVDEWTPEQVLAHAKALLKLVEDLAADPNVTLEQVEKVIEEVKKLIEALEKRVKEDPSYQPALEVVKKALEILEKKRKELK
B7: GBRAP_14_3851 (protein)
chain: VEELVKAVERTAERTKELAAEVLPEHAEEVKEKIEELAEKIIEKIKKENLNKEEVAELMDEMAKELAAFIKARGFANDTEIAAIRAEIISEAALELDKIE
B8: GBRAP_35_5542 (protein)
chain: DSDTTIVEMLVNTMEDLVLALPDVDDETFIKLTKHLIDLAEDIVKEQPKDKELIERAIKILEEAIKIIKESSLPEETKKELIERLEKLKEELKKILEKVK
B9: GBRAP_160_4103 (protein)
chain: MEKIEELIEDFEEVFEEVLELKDEISADELVNFYDVEMSAVILEAKDELNLSDETVDELLEVRDEIAERLRENYDKSLEEIRRILEEGLERMKEVLEKHS
B10: GBRAP_9_7180 (protein)
chain: EEEKKKKILKVVEEEGEEAIELAPEEKKPIMKKLMDEFIEKLKKAAEDKSKTLEEILKLLEELSEKIVEEAKKVVDEETYKLIEAELGTAILESEEIIEE
B11: GBRAP_14_3801 (protein)
chain: MEKRKKAINDIADEAEEELEEILADAPEEVRAAVLALVREARDKIIEENLTPDEVDELEDELLAEVAEILADAPEEVRAQVLATVAVHMGEIILEIEELE
B12: GBRAP_137_3615 (protein)
chain: KKVTITFSEEDGTAFAEIEADESVDLEKLEELIEEVAKEHGVKLVIAESEDPNDKVFYLVGTPEKIIAAVKDLIERLKKELGAEVVLESDGAEKLVEEVK
B13: GBRAP_125_3148 (protein)
chain: MKEKAIRLAIALAEAAGFSEEEIAELREIAEASDPRQAVVAVLLAAGFEEAAELAEEVLDKLTEEEFEELIKLAEESKDKSLEEFKKELLEKLKELKKKL
B14: GBRAP_184_5116 (protein)
chain: EVLEYELKVENKEEAEEKLEKVKEEAKKKKATVLVIVEVKNLTKEMAKTIVEKLAEIKKAGAKEVLALLESDKLSEEVLDTLDEGAKENGLDNLVIAYEE
B15: GBRAP_83_6967 (protein)
chain: AEKVTVVTTPDRVDEAIEAAKDLAEEEGKEVTVALVGDPEGVVAAARKVAEALKDLPNVSIEAVVTNVRAEEAERARRELEAIAEEHGLKLEFHADLIPP
B16: GBRAP_160_4395 (protein)
chain: SENFEKLKKEIEEIFEEAKKMIEGETPEERKVIVDVAFGEILLEIEENEEVSDELEEEFGKLLDKYRAEARKAVDEGLEALKKVIEKALKELKELIEKNE
B17: GBRAP_184_5229 (protein)
chain: TTVRRAVEAETAEELIAKVDAVVAEAAAAGERLALHVIAENVDLEGIERIMAYLAALKAAGRIADATLVVTDERSEEETDRLVALADRHGVRLVLALSEE
B18: GBRAP_125_3037 (protein)
chain: SLDAQVEALARIARRLGLSEEEVAELAELARRHGVKGALIALLLAEGLEELADLVARLSDAQVAAVLAELLAWLDAHPDATAEEVVARLRELVEAALAAA
B19: GBRAP_52_5877 (protein)
chain: MLEEAVKLLEEAVKAKKEGKEKELKEILKKIVEEFSEETILAAVKKLAEKVLTKSLEEAEAFYETVELLSDILLEAGKSEEIASLMEAIAGATLYTVEQK
B20: GBRAP_26_5434 (protein)
chain: IEETEREAEEKMKKAAAELGDPNKAAAALAEALTLLEEAVEEIEEKNLTKEEAEKLVKEKAKEFYEFLKELGVDEEKAEKLTKVFEEELKKVAEALLKER
B21: GBRAP_128_3533 (protein)
chain: STEEVIEYAKEVVEKIKNSDVETAYKITKEFIEKLKTWSLEEVEAAVEVLEENLPLLSAEKLEAVADAIEENIHTLSPEKQRLLNGVRVEALNLAEELEE
B22: GBRAP_166_4953 (protein)
chain: SMEEIIEEARRRLEELAEEMKGLDEEGRQEKLAEMAEVLAEAREAGASEEELLELAELALKLVKEAGGDVTAFLGAILMFVDLSEEEIEKLEEIRDKVLA
B23: GBRAP_83_6877 (protein)
chain: AEEITVVGNDDNIEEAFEAAIDLHLEDGYKVSIELIISRESLPLLKEQVKKMFEKGVEAEIEIYARGATKEEAEKLKEELEAIAKEAGVEAKVEVTVIEE
B24: GBRAP_35_5520 (protein)
chain: SSEEEEVEMLVATIEDLTLAVPDMDVETTVQIANQLIEHAERLAEDVKDNVEALERLRRALEALREALEKHYGDDPLAQETIARIRELIARIDELIKEAK
B25: GBRAP_184_5255 (protein)
chain: MTLEKEIKVKNVEELKEKLEEINKEALEKKADVLILLDVEKLTKEMADALFESIKEMKAKGYTGKVTIGITADLTEEMIDYVLEKADEAGVNVTLAIPEE
B26: GBRAP_57_6475 (protein)
chain: MERLKAVEEAAERALALIDARAPREEILAAVRELAELLSEETLRDVLLIADPEAPEDLSKEEAIARLVALAAAYLDAGDYDGLRRLVELMLGTAEMDFEE
B27: GBRAP_166_4988 (protein)
chain: MVEELIEELKKKTEEVIKEIEEADDEEVFELLVDFGEFLEELREKGVPLEEILEAAVKVAVAAAKKIGKPNLAVGIIANEAGLDEEELEKLEEAVKKELA
B28: GBRAP_128_3429 (protein)
chain: SMEEIVEEVRKLLEEMLTADKETQRKLAEEIAELMLESDLETAEAIAEVVEEMLPKFTAEQLEILADVGREMLPKFTPEKQEILAGVIVDALNQAEELEE
B29: GBRAP_160_4252 (protein)
chain: EEEIEKIEEEIEEEAEVLLEALKESDKSDWPAFARAMAGDIVQIVIENPNASEETIEKVDEAAEELAERLIANKDASPEEIEEILEEGVEEIIEIVKEEI

The binders below were run against GABARAP, O95166 (assay: median log2 fold change of GCK-ALFA target abundance (FLAG IP / Myc IP barcode read proportion) (log2 ratio); each designed protein is fused to an ALFA-tag nanobody in HEK293 cells to bring the named protein to FLAG-tagged glucokinase (GCK); Myc marks an untargeted standard; higher = target protein stabilised (more abundant)). Details: target protein: 3xFLAG-MCP-GCK-ALFA reporter; HEK293 landing pad (RPLP).
Sequence of GABARAP, O95166 (O95166 whole entry, the tested form may be a part): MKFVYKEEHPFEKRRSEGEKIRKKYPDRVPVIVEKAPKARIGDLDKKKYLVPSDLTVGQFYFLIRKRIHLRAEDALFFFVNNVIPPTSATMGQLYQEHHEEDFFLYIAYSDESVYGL
In short: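 Binders fused to an ALFA nanobody were recombined as a library into HEK293 landing-pad cells, which were induced with 2 μg mL^−1 doxycycline and then transfected to express a FLAG-tagged target and a Myc-tagged standard. After 48 h, circular RNA barcodes recovered by anti-FLAG and anti-Myc immunoprecipitation of lysates were reverse transcribed, amplified and sequenced. Each binder's target abundance is the median log2 ratio of FLAG to Myc barcode read proportions, from barcodes present at ≥10^−7 in both replicates, binders carrying ≥3 barcodes per replicate, a 10^−6 pseudocount and pooled replicates.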

Binder | median log2 fold change
B1 | 0.189
B2 | 0.224
B3 | -0.0416
B4 | 0.422
B5 | -0.302
B6 | 0.272
B7 | 0.285
B8 | -0.192
B9 | -0.00382
B10 | 0.11
B11 | -0.206
B12 | 0.199
B13 | 0.158
B14 | 0.157
B15 | 0.0202
B16 | -0.132
B17 | 0.131
B18 | -0.351
B19 | 0.168
B20 | 0.223
B21 | 0.15
B22 | 0.08
B23 | 0.0394
B24 | 0.206
B25 | -0.000826
B26 | 0.257
B27 | -0.0091
B28 | 0.259
B29 | 0.234
